The values that follow come from PMC12765065.

By UniProt entry, the sequences of proteins in these tests, tags left out.
UniProt P08151: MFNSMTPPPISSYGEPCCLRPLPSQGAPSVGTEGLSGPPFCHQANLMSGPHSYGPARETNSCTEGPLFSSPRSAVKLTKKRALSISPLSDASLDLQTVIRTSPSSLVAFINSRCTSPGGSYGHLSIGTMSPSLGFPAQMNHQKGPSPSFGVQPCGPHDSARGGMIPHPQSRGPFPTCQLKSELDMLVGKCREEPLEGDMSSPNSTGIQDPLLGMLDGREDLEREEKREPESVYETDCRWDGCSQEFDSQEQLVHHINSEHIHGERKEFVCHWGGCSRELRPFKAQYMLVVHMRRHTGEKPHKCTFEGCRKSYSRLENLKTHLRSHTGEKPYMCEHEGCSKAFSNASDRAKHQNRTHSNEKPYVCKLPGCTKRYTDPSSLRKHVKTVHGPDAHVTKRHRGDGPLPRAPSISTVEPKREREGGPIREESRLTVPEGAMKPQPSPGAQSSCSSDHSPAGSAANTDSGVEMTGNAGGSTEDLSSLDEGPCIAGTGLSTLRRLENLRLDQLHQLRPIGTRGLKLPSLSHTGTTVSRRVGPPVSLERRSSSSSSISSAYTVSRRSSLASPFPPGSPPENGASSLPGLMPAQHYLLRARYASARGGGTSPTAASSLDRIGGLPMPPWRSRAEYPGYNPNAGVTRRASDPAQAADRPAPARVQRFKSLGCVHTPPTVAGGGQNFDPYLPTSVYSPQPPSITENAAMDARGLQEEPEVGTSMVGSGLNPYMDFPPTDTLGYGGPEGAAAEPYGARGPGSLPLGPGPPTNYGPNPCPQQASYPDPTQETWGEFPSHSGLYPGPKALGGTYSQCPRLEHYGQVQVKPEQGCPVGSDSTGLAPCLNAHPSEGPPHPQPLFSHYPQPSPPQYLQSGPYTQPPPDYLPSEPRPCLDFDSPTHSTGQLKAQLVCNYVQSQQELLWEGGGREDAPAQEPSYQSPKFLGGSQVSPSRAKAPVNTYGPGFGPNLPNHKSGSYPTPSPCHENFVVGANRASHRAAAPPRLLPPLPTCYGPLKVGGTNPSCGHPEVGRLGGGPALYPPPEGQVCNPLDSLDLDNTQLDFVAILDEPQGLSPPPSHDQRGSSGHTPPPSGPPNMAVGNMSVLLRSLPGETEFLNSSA
UniProt P04406: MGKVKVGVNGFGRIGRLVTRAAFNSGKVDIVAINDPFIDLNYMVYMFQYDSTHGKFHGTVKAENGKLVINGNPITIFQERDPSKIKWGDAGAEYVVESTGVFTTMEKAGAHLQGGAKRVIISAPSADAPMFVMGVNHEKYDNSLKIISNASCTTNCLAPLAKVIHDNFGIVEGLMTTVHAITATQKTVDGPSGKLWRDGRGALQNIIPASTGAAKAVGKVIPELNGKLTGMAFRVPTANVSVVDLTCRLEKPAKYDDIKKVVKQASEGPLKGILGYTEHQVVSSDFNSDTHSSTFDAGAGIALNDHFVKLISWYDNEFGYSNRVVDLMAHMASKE
UniProt Q14974: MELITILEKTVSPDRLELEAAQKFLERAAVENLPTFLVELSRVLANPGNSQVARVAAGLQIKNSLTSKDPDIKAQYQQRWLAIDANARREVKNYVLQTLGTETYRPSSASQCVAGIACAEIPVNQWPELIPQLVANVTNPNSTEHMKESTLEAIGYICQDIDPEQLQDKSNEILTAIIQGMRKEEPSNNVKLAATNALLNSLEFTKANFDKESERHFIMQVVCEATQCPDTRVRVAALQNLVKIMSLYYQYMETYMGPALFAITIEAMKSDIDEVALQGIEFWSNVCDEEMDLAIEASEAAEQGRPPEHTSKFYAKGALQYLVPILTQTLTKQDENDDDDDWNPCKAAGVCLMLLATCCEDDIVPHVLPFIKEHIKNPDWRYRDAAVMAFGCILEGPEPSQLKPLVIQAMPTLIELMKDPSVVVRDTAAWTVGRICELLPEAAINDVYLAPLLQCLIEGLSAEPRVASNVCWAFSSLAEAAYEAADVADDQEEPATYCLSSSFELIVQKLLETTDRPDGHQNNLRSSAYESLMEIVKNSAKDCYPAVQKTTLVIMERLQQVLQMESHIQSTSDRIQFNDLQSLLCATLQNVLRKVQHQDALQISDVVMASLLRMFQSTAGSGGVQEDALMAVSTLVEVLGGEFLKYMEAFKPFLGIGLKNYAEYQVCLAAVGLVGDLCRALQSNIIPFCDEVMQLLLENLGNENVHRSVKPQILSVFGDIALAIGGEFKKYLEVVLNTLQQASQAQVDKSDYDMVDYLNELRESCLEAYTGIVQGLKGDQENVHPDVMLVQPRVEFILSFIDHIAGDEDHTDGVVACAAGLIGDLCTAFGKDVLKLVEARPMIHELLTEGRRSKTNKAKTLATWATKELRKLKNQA

Experiment [1] concerns the target T1, HA-tagged VAV1-WT (human) (UniProt P15498).
T1 sequence: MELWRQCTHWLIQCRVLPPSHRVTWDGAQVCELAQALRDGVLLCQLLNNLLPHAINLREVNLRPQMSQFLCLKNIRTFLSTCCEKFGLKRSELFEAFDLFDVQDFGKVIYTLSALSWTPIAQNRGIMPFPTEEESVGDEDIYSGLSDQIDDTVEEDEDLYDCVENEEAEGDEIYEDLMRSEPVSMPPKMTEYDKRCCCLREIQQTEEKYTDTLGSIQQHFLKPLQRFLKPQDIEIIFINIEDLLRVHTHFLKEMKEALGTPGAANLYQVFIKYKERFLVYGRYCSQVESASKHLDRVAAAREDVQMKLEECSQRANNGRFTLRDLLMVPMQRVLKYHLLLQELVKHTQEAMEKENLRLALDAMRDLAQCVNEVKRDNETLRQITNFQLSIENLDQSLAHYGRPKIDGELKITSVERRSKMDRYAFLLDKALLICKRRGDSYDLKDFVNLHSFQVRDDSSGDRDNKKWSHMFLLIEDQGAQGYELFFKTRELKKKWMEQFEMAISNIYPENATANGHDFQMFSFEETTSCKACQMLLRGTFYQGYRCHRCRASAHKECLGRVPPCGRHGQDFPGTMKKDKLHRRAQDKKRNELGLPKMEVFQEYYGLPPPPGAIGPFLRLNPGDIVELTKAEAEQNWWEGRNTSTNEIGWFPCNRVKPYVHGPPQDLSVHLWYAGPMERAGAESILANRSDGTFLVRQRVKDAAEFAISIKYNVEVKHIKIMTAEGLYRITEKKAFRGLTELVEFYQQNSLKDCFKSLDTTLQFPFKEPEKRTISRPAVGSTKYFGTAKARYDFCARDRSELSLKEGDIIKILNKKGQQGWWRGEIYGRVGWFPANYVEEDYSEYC
Nature of the experiment: co-IP; PANC1 cells (2 x 10^6) transfected with VAV1-HA and GLI1-3xFLAG; IP with 2 μg anti-GLI1 or 0.05 μg anti-HA; blots with anti-HA and anti-GLI1.

The target in experiment [2] is T2, VAV1 (endogenous) (human (endogenous in MIA PaCa2 and Capan-2)) (UniProt P15498).
T2 sequence: T1 sequence
The experiment can be described thus: proximity ligation; negative control in fixed, permeabilised MIA PaCa2 cells; Duolink PLA, mouse anti-VAV1 and rabbit anti-GAPDH; amplification 60 min.

The target in experiment [3] is T2, VAV1 (endogenous) (human (endogenous in MIA PaCa2 and Capan-2)). The experiment can be described thus: co-IP; endogenous proteins, Capan-2 cells (4-5 x 10^6); IP with 2 μg anti-VAV1 or normal rabbit IgG; blots with anti-GLI1 and anti-VAV1.
The target is the same in experiment [4]. Nature of the experiment: proximity ligation; endogenous proteins in fixed, permeabilised MIA PaCa2 cells; Duolink PLA, mouse anti-VAV1 and rabbit anti-GLI1; amplification 180 min; foci per nucleus counted.
The target in experiment [5] is T3, FLAG-tagged WT VAV1 (human) (UniProt P15498).
T3 sequence: T1 sequence
Nature of the experiment: co-IP; PANC1 cells (2 x 10^6) overexpressing FLAG-tagged VAV1-WT or VAV1-ΔNLS1, 24 h after transfection; IP with 0.05 μg anti-HA (so in the source) or normal mouse IgG; blots with anti-VAV1 and anti-IMPORTIN β1 (endogenous).

Results are given in words; binding and its absence hold for the method and conditions named. Binding seen in cells or lysates may run through a third protein. Some entries that bind do so weakly or less than the wild type. For some assays here: Where a sequence is shown, tags or fusion partners need not be part of it.

As to “FLAG-tagged GLI1 (from UniProt P08151 1-1106)”, in experiment [1], the binding entry is given as “binds”.

GAPDH (from UniProt P04406 1-335): the binding entry in experiment [2] is listed as “no binding”.

“GLI1 (endogenous) (from UniProt P08151 1-1106)”: the binding result in experiment [3] and in experiment [4] was “binds” in each case.

As for IMPORTIN β1 (from UniProt Q14974 1-876), in experiment [5], the binding result is reported as “binds”.
